Measured values as given in PubChem BioAssay AID485297 (National Center for Advancing Translational Sciences (NCATS), 2010).
Among all 320,000 compounds or so, about 9,100 (2.8%) were called active. This list was built around the results that the source calls inconclusive (neither active nor inactive); the mix of calls is not that of the screen. Calls come from the whole dose curve; as a rule, active = well fitted activation curve with a large enough effect; inconclusive = small, poorly fitted or top-dose-only effect; inactive = no such curve, though single readings can be large or run the other way. No potency is given beside an inconclusive call; the fits are too rough.
Potency is the fitted concentration of half-maximal effect; tags give direction and shape of the fitted curve.

Experiment: qHTS Assay for Rab9 Promoter Activators; note: nearly all actives have a fitted effect of over 60% in size; for activation, negative = inhibition: % of control where 0% means no effect
Conditions: Huh7 Rab9 promoter-luciferase reporter, luminescence, 24 h; series mostly up to 9.22 µM; activation, negative = inhibition: at the top concentration
Method in brief: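 Luciferase signal after 10 min detection reagent at ambient indicates Rab9 promoter upregulation; stably transfected Huh7 cells were treated 24 h with compound in DMSO at 37 °C, 5% CO2.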
In the case of CCOc1ccc(N=NC2C(=O)N(C(N)=S)N=C2C)cc1 (centres undefined), the Potency is reported as active: 3.98 µM. In the case of O=C(NC1CC1)c1cc2cc(Br)ccc2s1, the Potency is reported as inconclusive [activator, single point]. For Cc1nc(/N=C(\N)NC(=O)c2ccccc2)nc2ccccc12, the Potency was inconclusive [activator, single point]. For COc1ccc(-c2cc(C(=O)NC(Cc3cc4ccccc4[nH]3)C(=O)O)c(C)o2)cc1OC (centres undefined), the Potency was inconclusive [activator, single point]. With O=C(NNC(=O)c1cc(-c2ccncc2)nc2ccccc12)Nc1ccc(F)cc1 the “activation, negative = inhibition” value was inactive: 11.5%. For Cc1nn(C)c(C)c1/C=C1/SC(=S)NC1=O, the “activation, negative = inhibition” value was inactive: -0.638%. With N#CCC(=O)N/N=C/c1ccc(OCC(=O)Nc2ccc(F)cc2)cc1 the “activation, negative = inhibition” value was inactive: -16.1%. For CCc1ccc(/C=N/NC(=O)c2c[nH]c3ccccc23)s1, the Potency was active: 1.26 µM. In the case of CC1=NN(C(N)=S)C(=O)C1N=Nc1ccc([N+](=O)[O-])cc1 (centres undefined), the Potency is reported as inconclusive [activator, single point]. With CCCCNC(=O)Nc1ccc(Br)cn1 the Potency was inconclusive [activator, single point]. For CC1CC(=O)N(CC(=O)Nc2cccc(F)c2)c2ccccc2S1(=O)=O (centres undefined), the “activation, negative = inhibition” value was inactive: 0.318%. In the case of Cc1ccc(N2C(=O)N(c3ccc(C)cc3)C3CS(=O)(=O)CC32)cc1 (centres undefined), the Potency is reported as inconclusive [activator, single point]. For Cc1ccc(NC(=O)c2cc3ccccc3o2)cc1Cl, the Potency was active: 3.16 µM. In the case of Cc1cc(/C=C2\C(=O)NN(c3ccccc3)C2=O)c(C)n1-c1ccccc1O, the Potency is reported as active: 2.82 µM. With Cc1ccc(NC(=O)c2ccccc2)cc1 the Potency was active: 2.24 µM. In the case of Cc1ccc(C(=O)OCC(=O)N2CCCC2)cc1, the Potency is reported as inconclusive [activator, partial curve]. For CC(NC(=O)C1CCCN1S(=O)(=O)c1cccc2nsnc12)c1ccccc1 (centres undefined), the “activation, negative = inhibition” value was inactive: -3.59%. With C(=N\Nc1nc2ccccc2s1)/c1ccccn1 the “activation, negative = inhibition” value was inactive: -27.7%. With C/C(=N/NC(=O)c1cccs1)c1cccs1 the Potency was active: 2.51 µM. For Cc1ccccc1OCC(=O)N/N=C/c1sc(=O)n(Cc2cccc(C(=O)O)c2)c1Cl, the “activation, negative = inhibition” value was inactive: -0.35%. With COc1ccc(-c2ccc(SCC(=O)NCc3ccco3)nn2)cc1 the Potency was inconclusive [activator, single point]. In the case of Cc1ccc(-c2cn3cc([N+](=O)[O-])ccc3n2)cc1, the Potency is reported as active: 0.355 µM. In the case of CCOc1ccc(S(=O)(=O)NCCC(=O)OCC(=O)Nc2cc(C)on2)cc1, the “activation, negative = inhibition” value is reported as inactive: -0.0468%. With COc1ccc(-c2c(C)nc3c(-c4ccsc4)cnn3c2N)cc1 the Potency was active: 0.251 µM. In the case of Cc1cccc(OCC(=O)Nc2ccccc2F)c1, the Potency is reported as inconclusive [activator, single point]. With COc1ccc(/C=N/NC(=O)CNC(=O)c2ccc3c(c2)OCCO3)c(C(=O)O)c1OC the “activation, negative = inhibition” value was inactive: 0.171%. With O=C(c1ccc([N+](=O)[O-])cc1)n1nc(-c2ccccc2)nc1NCc1ccccc1 the Potency was inconclusive [activator, partial curve]. In the case of Cc1csc(NC(=O)CSc2nnc(-c3ccncc3)o2)n1, the Potency is reported as inconclusive [activator, full curve, poor fit]. For O=C(/C=N/O)Nc1cccnc1, the “activation, negative = inhibition” value was inactive: 1.48%. For CCCCOc1ccc(-c2ncc(C(=O)OCC)c(N)n2)cc1, the Potency was inconclusive [activator, partial curve]. For CCC(=O)C1CCCN(C(=O)CCc2nnc(-c3ccc(C(C)=O)s3)o2)C1 (centres undefined), the Potency was inconclusive [activator, single point]. With COc1ccccc1-c1noc(-c2ccncc2)n1 the Potency was inconclusive [activator, single point]. With Cc1cccc(NC(=O)CSc2nccn2Cc2ccco2)c1 the Potency was active: 2.82 µM. In the case of COc1cccc(NC(=O)CN(C)C(=O)CCN2C(=O)C3CC=CCC3C2=O)c1 (centres undefined), the Potency is reported as inconclusive [activator, single point]. For CCCCSc1nnc(-c2ccc(NC(C)=O)cc2)n1C, the “activation, negative = inhibition” value was inactive: -3.11%. For O=C(O)C1CCCCC1C(=O)Nc1ccc(-c2ccccc2)cc1 (centres undefined), the Potency was inconclusive [activator, single point]. In the case of O=C(Nc1ccsc1C(=O)O)c1cccc(Oc2ccccc2)c1, the Potency is reported as active: 0.891 µM. In the case of O=C(CSC1=NCCS1)Nc1nc2ccccc2s1, the Potency is reported as inconclusive [activator, single point]. With S=c1[nH]c(-c2ccc(Cl)cc2)cs1 the Potency was inconclusive [activator, partial curve]. For C/C(N)=C(/C#N)C(=O)CSc1ccc2c(c1)OCCO2, the Potency was active: 2.82 µM. For Cc1ccccc1Oc1ccc(Oc2ccccc2C)nn1, the Potency was inconclusive [activator, partial curve]. In the case of Cc1nc(-c2cccc(C(F)(F)F)c2)sc1C(=O)O, the “activation, negative = inhibition” value is reported as inactive: 14.8%. In the case of O=C(N/N=C/c1ccccc1C(F)(F)F)c1ccc2nc[nH]c2c1, the Potency is reported as inconclusive [activator, single point]. With CCCCNC(=O)CCC(=O)Nc1ccc2nc(N3CCOCC3)cc(C)c2c1 the Potency was inconclusive [activator, partial curve]. For CC1CCN(c2oc(-c3ccccc3Cl)nc2C#N)CC1, the Potency was inconclusive [activator, single point]. In the case of Cc1ccc(OCc2cc(C(=O)NC(C)Cc3cccnc3)no2)cc1C (centres undefined), the Potency is reported as inconclusive [activator, single point]. In the case of Cc1ccc(SCC(=O)Nc2ccc(N3CCN(C)CC3)c(F)c2)cc1, the Potency is reported as inconclusive [activator, single point]. For COc1ccc(C(=O)COC(=O)c2ccc([N+](=O)[O-])s2)cc1OC, the “activation, negative = inhibition” value was inactive: -0.797%. With Nc1nc(N2CCN(c3ccccn3)CC2)nc2ccccc12 the Potency was active: 3.55 µM. For COc1cccc(C(=O)NNC(=O)c2cccc(F)c2)c1, the Potency was inconclusive [activator, partial curve]. For O=c1[nH]c(-c2ccccn2)cc2ccccc12, the Potency was inconclusive [activator, partial curve]. For CN(Cc1ccc(F)cc1)C(=O)CCc1nnc(-c2ccccc2)o1, the Potency was inconclusive [activator, single point]. With CCCc1nnc(NC(=O)c2c(O)c3c([nH]c2=O)CCCC3)s1 the Potency was inconclusive [activator, single point]. In the case of Cc1nc2c(-c3ccccc3)c(C)nn2c(N)c1-c1ccccc1, the Potency is reported as active: 1.58 µM. For CSc1ccc(/C=N/NC(=O)c2cc(O)cc(O)c2)cc1, the Potency was inconclusive [activator, single point]. With Cc1ccc(C(=O)N[C@H](C(=O)Nc2cc(Cl)cc(Cl)c2)C(C)C)cc1 the “activation, negative = inhibition” value was inactive: -4.39%. With CC(Cc1ccc(Cl)cc1)N1CCC(n2nccc2NC(=O)C2CCCC2)CC1 (centres undefined) the “activation, negative = inhibition” value was inactive: -2.9%. In the case of O=C(Nc1cnn(Cc2ccccc2)c1)c1nc2ncccn2n1, the Potency is reported as inconclusive [activator, partial curve]. With COc1ccc(Nc2cc(C(=O)NCc3ccccn3)c3ccccc3n2)c(OC)c1 the Potency was inconclusive [activator, single point]. With O=c1c2c(nc3cc(-c4ccc(F)cc4)[nH]n13)CCCC2 the Potency was active: 0.447 µM. With COc1cc(N=Nc2ccc3ccccc3c2)ccc1O the Potency was inconclusive [activator, single point]. In the case of O=[N+]([O-])c1nn(-c2ccc3c(c2)OCCO3)n(O)c1=NCc1ccc(F)cc1Cl, the Potency is reported as active: 2.82 µM. In the case of Cc1ccc2c(c1)N(CC(=O)N1CCCCCC1)C(=O)C(C)O2 (centres undefined), the “activation, negative = inhibition” value is reported as inactive: -2.19%. For CCCCCCc1nnc(NC(=O)c2ccco2)s1, the Potency was inconclusive [activator, single point]. In the case of Cc1ccc(NC(=O)c2ccc3c(c2)OCCO3)nc1, the Potency is reported as active: 0.355 µM. With CC(=O)c1c(C)[nH]c(C(=O)OCC(=O)c2c[nH]c3ccccc23)c1C the Potency was inconclusive [activator, partial curve]. With COC(=O)c1ccc(C(=O)Nc2ccc(F)cc2)cc1 the Potency was inconclusive [activator, partial curve]. For O=C(CSc1nnc(-c2csc3c2CCCC3)o1)Nc1ccccc1, the Potency was active: 0.562 µM. For O=S(=O)(c1ccc2c(c1)OCCO2)N1CCN(c2nc3ccccc3s2)CC1, the “activation, negative = inhibition” value was inactive: 0.281%. For O=C(O)c1ccc(N/N=C/c2cccc(C(F)(F)F)c2)cc1, the Potency was active: 0.631 µM. With O=C(COc1ccccc1[N+](=O)[O-])Nc1ccc2c(c1)CCC2 the Potency was inconclusive [activator, single point]. With Oc1ccccc1/C=N/NC(=S)NC1CC2CC1C1C=CCC21 (centres undefined) the Potency was inconclusive [activator, single point]. For Cc1nc(Nc2nc3ccccc3o2)nc(C)c1C, the Potency was inconclusive [activator, full curve, poor fit]. For CCSc1nsc(NC(=O)Nc2cccc(C(C)=O)c2)n1, the Potency was inconclusive [activator, partial curve]. In the case of O=C(CSc1nnc(-c2ccccn2)o1)Nc1ccccc1, the Potency is reported as active: 2.51 µM. In the case of O=C(Nc1nc2ccc(F)cc2s1)C1CCCO1 (centres undefined), the Potency is reported as active: 2.24 µM. For CC(CNC(=O)COC(=O)c1cccnc1Cl)c1ccccc1 (centres undefined), the “activation, negative = inhibition” value was inactive: 1.46%. In the case of S=c1[nH]c(-c2ccccc2)cn1-c1ccccc1, the Potency is reported as inconclusive [activator, partial curve]. For Cc1ccc(Cl)c(N/C=C/C(=O)c2ccccc2)c1, the Potency was inconclusive [activator, single point].
